Measured values taken from publication PMC5362947.
Residue numbers refer to the chain shown, from its start. Results are given in words; binding and its absence hold for the method and conditions named. In cells and extracts the contact can be indirect. Some binding calls cover weakened binding; strength is not graded here. Where a sequence is shown, tags or fusion partners need not be part of it. Blank lines part the entries; values can stand above or below the molecule they belong to.

Protein sequences, listed by entry. Tags and fused reporters are not part of them. Residues count along the entry.
UniProt P56726, residues 33-793: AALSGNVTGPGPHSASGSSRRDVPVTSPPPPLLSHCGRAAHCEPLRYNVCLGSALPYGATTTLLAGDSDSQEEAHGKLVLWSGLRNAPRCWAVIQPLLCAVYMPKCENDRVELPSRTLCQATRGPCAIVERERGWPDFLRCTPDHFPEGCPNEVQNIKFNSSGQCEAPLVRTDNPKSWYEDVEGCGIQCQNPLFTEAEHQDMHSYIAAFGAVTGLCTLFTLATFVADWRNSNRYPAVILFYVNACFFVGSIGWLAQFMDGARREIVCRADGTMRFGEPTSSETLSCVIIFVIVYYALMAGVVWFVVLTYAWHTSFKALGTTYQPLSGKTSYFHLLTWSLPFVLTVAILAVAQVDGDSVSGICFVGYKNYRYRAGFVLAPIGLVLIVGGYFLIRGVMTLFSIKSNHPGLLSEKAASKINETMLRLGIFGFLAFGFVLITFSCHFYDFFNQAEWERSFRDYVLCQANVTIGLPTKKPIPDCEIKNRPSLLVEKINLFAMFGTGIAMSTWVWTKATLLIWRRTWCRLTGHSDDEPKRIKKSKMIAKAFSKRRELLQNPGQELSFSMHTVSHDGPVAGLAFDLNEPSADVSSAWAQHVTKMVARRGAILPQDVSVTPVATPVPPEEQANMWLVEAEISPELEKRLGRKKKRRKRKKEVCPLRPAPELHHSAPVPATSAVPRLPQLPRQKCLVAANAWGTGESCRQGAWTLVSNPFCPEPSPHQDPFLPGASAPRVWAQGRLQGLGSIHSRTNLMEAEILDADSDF

Experiments:
GST-EHD1-399-534 [1] = target: T1, GST-EHD1-399-534 (UniProt Q9H4M9); assay: pull-down; 50 μg GST fusion protein non-covalently bound to Glutathione-Sepharose beads; 5 mg lysate protein of NIH-3T3 cells (serum-deprived 24 hours, then SAG 24 hours); anti-smoothened immunoblotting; only the target purified
T1 sequence: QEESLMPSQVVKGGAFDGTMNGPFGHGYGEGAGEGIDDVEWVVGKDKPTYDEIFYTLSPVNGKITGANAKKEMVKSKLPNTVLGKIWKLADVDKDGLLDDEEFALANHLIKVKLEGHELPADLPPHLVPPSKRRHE

GST-EHD1-438-534 [2] = target: T2, GST-EHD1-438-534 (UniProt Q9H4M9); assay: as above
T2 sequence: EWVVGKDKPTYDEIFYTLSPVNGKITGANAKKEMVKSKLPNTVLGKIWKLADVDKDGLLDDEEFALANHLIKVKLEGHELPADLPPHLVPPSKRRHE

GST-EHD1-399-534 [3] = target: T1, GST-EHD1-399-534; assay: pull-down; 50 μg GST fusion protein non-covalently bound to Glutathione-Sepharose beads; 2 mg lysate protein of HEK-293T cells transiently transfected with Rabenosyn 5-GFP; anti-GFP immunoblotting; only the target purified
[4] = target: T3, GST-EHD1-399-534-W485A mutant (UniProt Q9H4M9); assay: as above
T3 sequence: T1 sequence with W87A

GST-EHD1-438-534 [5] = target: T2, GST-EHD1-438-534; assay: as above

binding (GST-EHD1-399-534 [1]): binds
binding (GST-EHD1-438-534 [2]): no binding
Molecule: Smoothened (from UniProt P56726 33-793) (receptor)

binding (GST-EHD1-399-534 [3]): binds
binding [4]: no binding
binding (GST-EHD1-438-534 [5]): binds
B1: human Rabenosyn 5-GFP (protein, UniProt Q9H1K0 1-784)
chain: MASLDDPGEVREGFLCPLCLKDLQSFYQLHSHYEEEHSGEDRDVKGQIKSLVQKAKKAKDRLLKREGDDRAESGTQGYESFSYGGVDPYMWEPQELGAVRSHLSDFKKHRAARIDHYVVEVNKLIIRLEKLTAFDRTNTESAKIRAIEKSVVPWVNDQDVPFCPDCGNKFSIRNRRHHCRLCGSIMCKKCMELISLPLANKLTSASKESLSTHTSPSQSPNSVHGSRRGSISSMSSVSSVLDEKDDDRIRCCTHCKDTLLKREQQIDEKEHTPDIVKLYEKLRLCMEKVDQKAPEYIRMAASLNAGETTYSLEHASDLRVEVQKVYELIDALSKKILTLGLNQDPPPHPSNLRLQRMIRYSATLFVQEKLLGLMSLPTKEQFEELKKKRKEEMERKRAVERQAALESQRRLEERQSGLASRAANGEVASLRRGPAPLRKAEGWLPLSGGQGQSEDSDPLLQQIHNITSFIRQAKAAGRMDEVRTLQENLRQLQDEYDQQQTEKAIELSRRQAEEEDLQREQLQMLRERELEREREQFRVASLHTRTRSLDFREIGPFQLEPSREPRTHLAYALDLGSSPVPSSTAPKTPSLSSTQPTRVWSGPPAVGQERLPQSSMPQQHEGPSLNPFDEEDLSSPMEEATTGPPAAGVSLDPSARILKEYNPFEEEDEEEEAVAGNPFIQPDSPAPNPFSEEDEHPQQRLSSPLVPGNPFEEPTCINPFEMDSDSGPEAEEPIEEELLLQQIDNIKAYIFDAKQCGRLDEVEVLTENLRELKHTLAKQKGGTD
